Measured values as given in patent publication US20240174727A1, “LONG-ACTING NATRIURETIC PEPTIDES AND USES THEREOF” (Eli Lilly and Company, priority 2022, published 2024).
“And” between values parts separate entries of the source, which are not always exact repeats. Equal values may be shown once. At least one compound was matched to its structure with a doubt left. Some entries repeat one wording, which the source may state once for all of them. Numbered stars: 1 amine (or outer) side, 2 acyl side, 3 side chain; on linkers, the order of the positions; unused ones are H or OH. Bridge positions count the residues as written; N and C are the ends. Square brackets hold non-standard residues; d marks the D form. * marks the point of attachment. PEG24 = NCCOCCOCCOCCOCCOCCOCCOCCOCCOCCOCCOCCOCCOCCOCCOCCOCCOCCOCCOCCOCCOCCOCCOCCOCCC(=O)O; C20 diacid = O=C(O)CCCCCCCCCCCCCCCCCCC(=O)*; γGlu = O=C(O)[C@H](CCC(=O)[*:2])N[*:1]; CH2 = C([*:1])[*:2]; βAla = NCCC(=O)O

Tests used:
[1] = tested on: plasma cGMP; assay: In vivo monkey studies, plasma cGMP ELISA; set-up: species or system male cynomolgus monkeys; details: for Net cGMP (nM) Change from Baseline 0.5 h: 0.5 h postdose; for Net cGMP (nM) Change from Baseline 1 h: 1 h postdose; for Net cGMP (nM) Change from Baseline 4 h: 4 h postdose; for Net cGMP (nM) Change from Baseline 8 h: 8 h postdose; for Net cGMP (nM) Change from Baseline 12 h: 12 h postdose; for Net cGMP (nM) Change from Baseline 24 h: 24 h postdose; for Net cGMP (nM) Change from Baseline 48 h: 48 h postdose; for Net cGMP (nM) Change from Baseline 72 h: 72 h postdose; for Net cGMP (nM) Change from Baseline 96 h: 96 h postdose; for Net cGMP (nM) Change from Baseline 120 h: 120 h postdose; for Net cGMP (nM) Change from Baseline 144 h: 144 h postdose; for Net cGMP (nM) Change from Baseline 168 h: 168 h postdose; for Net cGMP (nM) Change from Baseline 0.083 h: 0.083 h postdose; for Net cGMP (nM) Change from Baseline 0.25 h: 0.25 h postdose; for Net cGMP (nM) Change from Baseline 2 h: 2 h postdose
Procedure, shortened: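 Net plasma cGMP change (nM) relative to each animal's own predose sample, after a single subcutaneous dose to male cynomolgus monkeys. Acetylated plasma (1:20) assayed by competitive cGMP ELISA, pNpp read at 405 nm, quantified against a 4-parameter standard curve.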

[2] = tested on: plasma cGMP; assay: In vivo dog studies, plasma cGMP ELISA; set-up: species or system male purebred beagle dogs; details: for Net cGMP (nM) Change from Baseline: dog plasma, single SC dose (60 nmol/kg Example 2; 50 nmol/kg Examples 4, 7)
[3] = dose 100 nmol/kg, monkey plasma
[4] = dose 300 nmol/kg, monkey plasma

{C20 diacid-γGlu}-EKEKEKG[PEG24]EK[βAla]RSSCFGGKIDRIGHQSGLGCPSFRHGSPSSGAPPPS-NH2 (linker 15-31 via CH2) [Example 7]
Net cGMP (nM) Change from Baseline 0.5 h ([1]; dose 25 nmol/kg, monkey plasma): 2.16 nM and 4.14 nM | Net cGMP (nM) Change from Baseline 1 h ([1]; dose 25 nmol/kg, monkey plasma): 2.41 nM and 2.62 nM | Net cGMP (nM) Change from Baseline 4 h ([1]; dose 25 nmol/kg, monkey plasma): 3.9 nM and 6.17 nM | Net cGMP (nM) Change from Baseline 8 h ([1]; dose 25 nmol/kg, monkey plasma): 14.3 nM and 11.73 nM | Net cGMP (nM) Change from Baseline 12 h ([1]; dose 25 nmol/kg, monkey plasma): 15.75 nM and 13.86 nM | Net cGMP (nM) Change from Baseline 24 h ([1]; dose 25 nmol/kg, monkey plasma): 20.19 nM and 19.02 nM | Net cGMP (nM) Change from Baseline 36 h ([1]; dose 25 nmol/kg, 36 h postdose, monkey plasma): 20.61 nM | Net cGMP (nM) Change from Baseline 48 h ([1]; dose 25 nmol/kg, monkey plasma): 19.48 nM and 13.22 nM | Net cGMP (nM) Change from Baseline 72 h ([1]; dose 25 nmol/kg, monkey plasma): 19.25 nM and 15.29 nM | Net cGMP (nM) Change from Baseline 96 h ([1]; dose 25 nmol/kg, monkey plasma): 11.24 nM and 9.34 nM | Net cGMP (nM) Change from Baseline 120 h ([1]; dose 25 nmol/kg, monkey plasma): 11.21 nM and 11.44 nM | Net cGMP (nM) Change from Baseline 144 h ([1]; dose 25 nmol/kg, monkey plasma): 12.51 nM and 6.92 nM | Net cGMP (nM) Change from Baseline 168 h ([1]; dose 25 nmol/kg, monkey plasma): 8.98 nM and 6.98 nM | Net cGMP (nM) Change from Baseline 0.083 h ([1]; dose 50 nmol/kg, monkey plasma): -0.94 nM | Net cGMP (nM) Change from Baseline 0.25 h ([1]; dose 50 nmol/kg, monkey plasma): 0.47 nM | Net cGMP (nM) Change from Baseline 0.5 h ([1]; dose 50 nmol/kg, monkey plasma): 0.93 nM | Net cGMP (nM) Change from Baseline 1 h ([1]; dose 50 nmol/kg, monkey plasma): 4.95 nM | Net cGMP (nM) Change from Baseline 2 h ([1]; dose 50 nmol/kg, monkey plasma): 5.72 nM | Net cGMP (nM) Change from Baseline 4 h ([1]; dose 50 nmol/kg, monkey plasma): 13.07 nM | Net cGMP (nM) Change from Baseline 8 h ([1]; dose 50 nmol/kg, monkey plasma): 24.58 nM | Net cGMP (nM) Change from Baseline 12 h ([1]; dose 50 nmol/kg, monkey plasma): 23.51 nM | Net cGMP (nM) Change from Baseline 24 h ([1]; dose 50 nmol/kg, monkey plasma): 29.66 nM | Net cGMP (nM) Change from Baseline 48 h ([1]; dose 50 nmol/kg, monkey plasma): 20.37 nM | Net cGMP (nM) Change from Baseline 72 h ([1]; dose 50 nmol/kg, monkey plasma): 18.64 nM | Net cGMP (nM) Change from Baseline 96 h ([1]; dose 50 nmol/kg, monkey plasma): 19.24 nM | Net cGMP (nM) Change from Baseline 120 h ([1]; dose 50 nmol/kg, monkey plasma): 14.1 nM | Net cGMP (nM) Change from Baseline 144 h ([1]; dose 50 nmol/kg, monkey plasma): 12.83 nM | Net cGMP (nM) Change from Baseline 168 h ([1]; dose 50 nmol/kg, monkey plasma): 16.25 nM | Net cGMP (nM) Change from Baseline 0.083 h [1, 3]: 2.42 nM | Net cGMP (nM) Change from Baseline 0.25 h [1, 3]: 8.95 nM | Net cGMP (nM) Change from Baseline 0.5 h [1, 3]: 11.78 nM | Net cGMP (nM) Change from Baseline 1 h [1, 3]: 17.22 nM | Net cGMP (nM) Change from Baseline 2 h [1, 3]: 22.56 nM | Net cGMP (nM) Change from Baseline 4 h [1, 3]: 27.89 nM | Net cGMP (nM) Change from Baseline 8 h [1, 3]: 41.05 nM | Net cGMP (nM) Change from Baseline 12 h [1, 3]: 44.99 nM | Net cGMP (nM) Change from Baseline 24 h [1, 3]: 49.08 nM | Net cGMP (nM) Change from Baseline 48 h [1, 3]: 35.54 nM | Net cGMP (nM) Change from Baseline 72 h [1, 3]: 30.5 nM | Net cGMP (nM) Change from Baseline 96 h [1, 3]: 25.93 nM | Net cGMP (nM) Change from Baseline 120 h [1, 3]: 22.6 nM | Net cGMP (nM) Change from Baseline 144 h [1, 3]: 22.79 nM | Net cGMP (nM) Change from Baseline 168 h [1, 3]: 25.47 nM | Net cGMP (nM) Change from Baseline 0.083 h [1, 4]: -1 nM | Net cGMP (nM) Change from Baseline 0.25 h [1, 4]: 9.8 nM | Net cGMP (nM) Change from Baseline 0.5 h [1, 4]: 23.08 nM | Net cGMP (nM) Change from Baseline 1 h [1, 4]: 37.7 nM | Net cGMP (nM) Change from Baseline 2 h [1, 4]: 53.76 nM | Net cGMP (nM) Change from Baseline 4 h [1, 4]: 54.16 nM | Net cGMP (nM) Change from Baseline 8 h [1, 4]: 44.13 nM | Net cGMP (nM) Change from Baseline 12 h [1, 4]: 37.1 nM | Net cGMP (nM) Change from Baseline 24 h [1, 4]: 42.53 nM | Net cGMP (nM) Change from Baseline 48 h [1, 4]: 25.82 nM | Net cGMP (nM) Change from Baseline 72 h [1, 4]: 19.1 nM | Net cGMP (nM) Change from Baseline 96 h [1, 4]: 23.36 nM | Net cGMP (nM) Change from Baseline 120 h [1, 4]: 16.05 nM | Net cGMP (nM) Change from Baseline 144 h [1, 4]: 17.85 nM | Net cGMP (nM) Change from Baseline 168 h [1, 4]: 13.2 nM | net cGMP levels (result in words) ([1]; monkeys, single SC dose, plasma): increased net cGMP levels | Net cGMP (nM) Change from Baseline ([2]; 0.083 h): -4.03 nM | Net cGMP (nM) Change from Baseline ([2]; 0.25 h): 0.2 nM | Net cGMP (nM) Change from Baseline ([2]; 0.5 h): 28.04 nM | Net cGMP (nM) Change from Baseline ([2]; 1 h): 77.61 nM | Net cGMP (nM) Change from Baseline ([2]; 2 h): 66.51 nM | Net cGMP (nM) Change from Baseline ([2]; 4 h): 124.76 nM | Net cGMP (nM) Change from Baseline ([2]; 8 h): 173.62 nM | Net cGMP (nM) Change from Baseline ([2]; 12 h): 173.41 nM | Net cGMP (nM) Change from Baseline ([2]; 24 h): 132.42 nM | Net cGMP (nM) Change from Baseline ([2]; 36 h): 95.64 nM | Net cGMP (nM) Change from Baseline ([2]; 48 h): 98.09 nM | Net cGMP (nM) Change from Baseline ([2]; 72 h): 80.96 nM | Net cGMP (nM) Change from Baseline ([2]; 96 h): 77.23 nM | Net cGMP (nM) Change from Baseline ([2]; 120 h): 92.7 nM | Net cGMP (nM) Change from Baseline ([2]; 144 h): 103.94 nM | Net cGMP (nM) Change from Baseline ([2]; 168 h): 70.12 nM | net cGMP levels (result in words) ([2]; dogs, single SC dose, plasma): increased net cGMP levels
